Experimental data as given in article PMC6078952.
Results are given in words; binding and its absence hold for the method and conditions named.

Chains of the proteins cited; added tags and fusions are not shown. Lines headed by an entry give the natural chain unless they say otherwise; changes in a name come on top. A line that says so, or that is headed by a name, gives the form on record, which may keep a tag or linker. Residues count along the entry.
UniProt Q05793, residues 22-3707: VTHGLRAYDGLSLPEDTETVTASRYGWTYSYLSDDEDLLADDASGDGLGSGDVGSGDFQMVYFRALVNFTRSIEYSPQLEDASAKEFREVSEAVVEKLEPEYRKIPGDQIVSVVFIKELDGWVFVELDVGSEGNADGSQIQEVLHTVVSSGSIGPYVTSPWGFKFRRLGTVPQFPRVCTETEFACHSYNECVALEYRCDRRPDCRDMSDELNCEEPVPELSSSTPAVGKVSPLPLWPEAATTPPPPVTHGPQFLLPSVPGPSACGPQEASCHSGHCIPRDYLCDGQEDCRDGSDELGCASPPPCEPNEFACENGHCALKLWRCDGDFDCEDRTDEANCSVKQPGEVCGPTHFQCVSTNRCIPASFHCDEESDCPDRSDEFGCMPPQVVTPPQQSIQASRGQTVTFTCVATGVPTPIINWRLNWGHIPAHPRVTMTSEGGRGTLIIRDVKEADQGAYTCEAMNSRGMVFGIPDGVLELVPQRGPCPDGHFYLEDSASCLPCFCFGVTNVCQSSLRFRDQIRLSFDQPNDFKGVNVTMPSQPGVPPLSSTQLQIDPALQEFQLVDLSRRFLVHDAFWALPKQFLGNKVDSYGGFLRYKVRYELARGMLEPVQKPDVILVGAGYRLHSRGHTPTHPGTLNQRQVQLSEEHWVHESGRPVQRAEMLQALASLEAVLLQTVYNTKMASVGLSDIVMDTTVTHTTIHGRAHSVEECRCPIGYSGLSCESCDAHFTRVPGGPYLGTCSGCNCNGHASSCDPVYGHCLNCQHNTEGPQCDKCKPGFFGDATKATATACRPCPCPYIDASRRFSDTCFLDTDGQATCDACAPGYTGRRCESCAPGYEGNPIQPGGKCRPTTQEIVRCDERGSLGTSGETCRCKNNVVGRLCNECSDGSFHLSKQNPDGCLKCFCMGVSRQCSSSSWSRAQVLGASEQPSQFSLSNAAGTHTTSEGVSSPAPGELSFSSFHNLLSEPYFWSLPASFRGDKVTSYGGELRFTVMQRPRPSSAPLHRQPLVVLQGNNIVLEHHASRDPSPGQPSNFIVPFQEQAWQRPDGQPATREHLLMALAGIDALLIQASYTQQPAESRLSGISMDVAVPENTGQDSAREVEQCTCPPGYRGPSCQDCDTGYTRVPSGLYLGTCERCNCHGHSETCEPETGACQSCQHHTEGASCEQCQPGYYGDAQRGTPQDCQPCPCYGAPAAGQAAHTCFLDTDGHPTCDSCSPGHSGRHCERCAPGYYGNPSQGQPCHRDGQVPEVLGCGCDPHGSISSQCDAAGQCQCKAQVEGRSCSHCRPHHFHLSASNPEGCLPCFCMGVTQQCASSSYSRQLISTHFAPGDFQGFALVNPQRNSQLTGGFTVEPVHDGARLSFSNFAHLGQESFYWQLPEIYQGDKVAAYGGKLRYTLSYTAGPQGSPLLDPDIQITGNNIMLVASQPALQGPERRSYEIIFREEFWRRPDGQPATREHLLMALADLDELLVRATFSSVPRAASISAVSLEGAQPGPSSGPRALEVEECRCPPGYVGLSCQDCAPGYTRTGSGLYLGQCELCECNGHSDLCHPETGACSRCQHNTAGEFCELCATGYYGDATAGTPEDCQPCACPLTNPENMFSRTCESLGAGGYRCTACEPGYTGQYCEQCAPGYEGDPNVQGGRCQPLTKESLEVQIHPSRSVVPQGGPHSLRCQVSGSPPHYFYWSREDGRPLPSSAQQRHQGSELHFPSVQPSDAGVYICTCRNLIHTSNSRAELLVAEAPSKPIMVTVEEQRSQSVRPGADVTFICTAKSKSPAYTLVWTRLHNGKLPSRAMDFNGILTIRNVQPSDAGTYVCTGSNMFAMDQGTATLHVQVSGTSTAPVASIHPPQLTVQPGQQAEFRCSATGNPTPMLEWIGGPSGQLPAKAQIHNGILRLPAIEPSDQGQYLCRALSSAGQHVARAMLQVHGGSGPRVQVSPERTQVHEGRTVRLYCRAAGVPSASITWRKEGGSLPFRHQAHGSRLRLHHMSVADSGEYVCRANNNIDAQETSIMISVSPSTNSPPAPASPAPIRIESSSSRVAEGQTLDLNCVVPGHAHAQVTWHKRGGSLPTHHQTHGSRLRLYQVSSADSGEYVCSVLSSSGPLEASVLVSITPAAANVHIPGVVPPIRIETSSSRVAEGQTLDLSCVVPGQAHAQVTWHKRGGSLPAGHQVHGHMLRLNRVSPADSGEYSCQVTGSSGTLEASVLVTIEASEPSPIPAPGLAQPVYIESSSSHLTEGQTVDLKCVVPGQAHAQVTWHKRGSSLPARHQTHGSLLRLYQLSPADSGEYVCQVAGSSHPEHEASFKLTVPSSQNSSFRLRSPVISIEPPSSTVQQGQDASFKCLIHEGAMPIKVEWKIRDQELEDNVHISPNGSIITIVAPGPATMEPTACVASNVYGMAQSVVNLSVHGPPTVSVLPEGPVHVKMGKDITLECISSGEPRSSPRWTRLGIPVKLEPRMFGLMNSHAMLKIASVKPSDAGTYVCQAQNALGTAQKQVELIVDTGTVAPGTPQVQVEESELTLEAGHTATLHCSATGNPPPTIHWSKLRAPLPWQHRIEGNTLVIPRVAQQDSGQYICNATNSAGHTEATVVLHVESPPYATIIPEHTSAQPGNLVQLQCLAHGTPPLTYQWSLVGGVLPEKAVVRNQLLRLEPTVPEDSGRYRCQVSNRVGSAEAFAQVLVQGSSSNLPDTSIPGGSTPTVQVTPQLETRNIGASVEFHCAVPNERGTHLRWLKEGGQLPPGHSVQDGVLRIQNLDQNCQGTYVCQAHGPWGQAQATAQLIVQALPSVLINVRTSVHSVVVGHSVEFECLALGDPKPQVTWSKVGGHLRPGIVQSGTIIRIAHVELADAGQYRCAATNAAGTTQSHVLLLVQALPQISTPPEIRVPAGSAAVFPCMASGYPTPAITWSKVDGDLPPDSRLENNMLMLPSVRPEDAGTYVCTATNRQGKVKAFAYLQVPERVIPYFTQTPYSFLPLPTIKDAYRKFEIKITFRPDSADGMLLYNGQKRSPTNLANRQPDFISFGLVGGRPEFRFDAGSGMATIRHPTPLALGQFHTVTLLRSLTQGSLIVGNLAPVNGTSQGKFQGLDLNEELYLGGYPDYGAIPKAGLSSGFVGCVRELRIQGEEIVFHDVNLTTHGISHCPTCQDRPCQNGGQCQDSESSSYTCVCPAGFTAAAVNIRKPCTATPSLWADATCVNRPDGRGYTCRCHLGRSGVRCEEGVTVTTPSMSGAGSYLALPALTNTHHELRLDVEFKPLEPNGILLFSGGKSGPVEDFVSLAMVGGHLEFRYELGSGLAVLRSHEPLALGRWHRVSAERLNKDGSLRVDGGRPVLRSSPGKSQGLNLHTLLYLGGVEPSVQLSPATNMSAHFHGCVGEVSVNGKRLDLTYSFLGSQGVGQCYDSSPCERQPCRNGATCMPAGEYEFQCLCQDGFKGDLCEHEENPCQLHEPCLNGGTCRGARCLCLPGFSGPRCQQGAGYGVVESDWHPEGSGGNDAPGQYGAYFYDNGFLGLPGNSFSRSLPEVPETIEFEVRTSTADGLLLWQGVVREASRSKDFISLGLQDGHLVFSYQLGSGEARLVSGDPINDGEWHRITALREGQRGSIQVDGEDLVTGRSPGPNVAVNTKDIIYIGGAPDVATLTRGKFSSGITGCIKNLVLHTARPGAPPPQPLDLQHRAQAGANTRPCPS
Collagen XVIII (NC1 domain) (P39060, residues 1443-1754): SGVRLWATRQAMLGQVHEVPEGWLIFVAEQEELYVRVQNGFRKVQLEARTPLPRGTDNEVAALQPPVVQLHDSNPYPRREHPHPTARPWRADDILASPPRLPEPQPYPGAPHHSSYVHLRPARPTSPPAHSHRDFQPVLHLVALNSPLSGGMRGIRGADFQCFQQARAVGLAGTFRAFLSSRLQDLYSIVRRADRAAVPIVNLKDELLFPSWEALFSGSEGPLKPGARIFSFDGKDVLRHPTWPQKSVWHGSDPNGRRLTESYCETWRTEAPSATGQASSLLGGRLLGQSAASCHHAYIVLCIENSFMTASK
UniProt P13608, residues 17-2364: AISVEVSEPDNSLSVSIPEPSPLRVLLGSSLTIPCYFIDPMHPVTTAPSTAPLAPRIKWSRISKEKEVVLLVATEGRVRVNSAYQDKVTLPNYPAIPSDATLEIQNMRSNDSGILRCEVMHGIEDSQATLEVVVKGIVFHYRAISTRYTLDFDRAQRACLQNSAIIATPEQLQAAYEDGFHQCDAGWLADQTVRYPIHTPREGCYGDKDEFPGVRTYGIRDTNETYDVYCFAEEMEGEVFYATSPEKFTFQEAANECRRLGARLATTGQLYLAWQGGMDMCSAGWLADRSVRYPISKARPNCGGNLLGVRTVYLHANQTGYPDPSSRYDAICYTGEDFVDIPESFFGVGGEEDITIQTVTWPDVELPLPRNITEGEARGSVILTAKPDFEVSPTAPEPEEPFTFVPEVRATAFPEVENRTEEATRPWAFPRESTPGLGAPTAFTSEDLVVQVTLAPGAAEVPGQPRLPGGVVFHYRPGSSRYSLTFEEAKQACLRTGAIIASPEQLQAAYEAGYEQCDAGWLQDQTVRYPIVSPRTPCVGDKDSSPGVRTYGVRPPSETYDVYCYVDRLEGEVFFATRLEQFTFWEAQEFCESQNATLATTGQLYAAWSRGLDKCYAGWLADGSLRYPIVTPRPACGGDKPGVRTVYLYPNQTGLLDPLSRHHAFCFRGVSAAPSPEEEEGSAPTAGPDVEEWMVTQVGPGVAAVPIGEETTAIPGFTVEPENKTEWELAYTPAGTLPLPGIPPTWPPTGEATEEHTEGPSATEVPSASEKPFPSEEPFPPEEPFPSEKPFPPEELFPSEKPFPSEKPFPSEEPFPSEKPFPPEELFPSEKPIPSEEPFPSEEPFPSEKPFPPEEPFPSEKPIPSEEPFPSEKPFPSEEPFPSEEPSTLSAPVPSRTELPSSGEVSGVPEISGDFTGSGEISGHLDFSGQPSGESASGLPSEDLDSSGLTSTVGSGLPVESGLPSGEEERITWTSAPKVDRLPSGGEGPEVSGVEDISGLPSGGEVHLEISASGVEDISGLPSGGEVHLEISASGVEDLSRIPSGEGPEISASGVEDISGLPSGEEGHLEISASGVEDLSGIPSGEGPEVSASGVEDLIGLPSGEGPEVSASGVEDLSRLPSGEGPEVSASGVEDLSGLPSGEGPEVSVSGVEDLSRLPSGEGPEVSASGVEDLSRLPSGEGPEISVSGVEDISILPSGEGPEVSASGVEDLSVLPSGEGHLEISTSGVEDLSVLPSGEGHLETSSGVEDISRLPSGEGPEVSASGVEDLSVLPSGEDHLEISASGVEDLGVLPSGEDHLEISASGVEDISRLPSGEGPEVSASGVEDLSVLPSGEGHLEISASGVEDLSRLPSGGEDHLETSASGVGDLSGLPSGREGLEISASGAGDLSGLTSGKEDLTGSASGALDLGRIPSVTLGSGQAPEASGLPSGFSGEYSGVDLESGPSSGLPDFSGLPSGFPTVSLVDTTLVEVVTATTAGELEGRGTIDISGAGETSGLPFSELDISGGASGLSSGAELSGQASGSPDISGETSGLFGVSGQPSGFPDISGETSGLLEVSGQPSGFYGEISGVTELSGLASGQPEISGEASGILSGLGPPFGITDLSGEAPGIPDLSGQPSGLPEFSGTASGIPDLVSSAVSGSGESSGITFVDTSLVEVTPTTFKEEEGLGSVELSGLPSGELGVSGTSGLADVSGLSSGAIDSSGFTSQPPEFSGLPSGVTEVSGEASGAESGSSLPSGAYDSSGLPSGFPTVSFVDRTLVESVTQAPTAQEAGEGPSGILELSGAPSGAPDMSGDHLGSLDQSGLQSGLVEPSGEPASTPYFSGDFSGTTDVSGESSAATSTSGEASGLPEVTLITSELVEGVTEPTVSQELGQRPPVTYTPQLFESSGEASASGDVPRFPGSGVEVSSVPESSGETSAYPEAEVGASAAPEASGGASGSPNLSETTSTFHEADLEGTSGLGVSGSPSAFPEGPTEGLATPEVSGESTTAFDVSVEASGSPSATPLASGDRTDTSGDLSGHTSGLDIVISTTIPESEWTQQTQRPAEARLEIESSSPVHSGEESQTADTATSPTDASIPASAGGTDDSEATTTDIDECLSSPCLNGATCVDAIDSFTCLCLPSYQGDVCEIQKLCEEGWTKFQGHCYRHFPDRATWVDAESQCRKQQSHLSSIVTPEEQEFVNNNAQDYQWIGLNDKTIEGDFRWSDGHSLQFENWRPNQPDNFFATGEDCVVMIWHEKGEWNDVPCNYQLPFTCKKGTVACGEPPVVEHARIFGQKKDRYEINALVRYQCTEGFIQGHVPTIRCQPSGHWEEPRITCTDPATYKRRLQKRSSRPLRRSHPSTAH
Lysyl oxidase propeptide (LOX-PP) (Pro24Leu) (P28300, form named): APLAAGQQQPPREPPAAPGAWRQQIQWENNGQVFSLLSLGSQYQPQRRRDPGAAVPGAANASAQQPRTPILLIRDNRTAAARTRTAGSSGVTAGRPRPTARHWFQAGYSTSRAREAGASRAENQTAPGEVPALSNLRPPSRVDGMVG

Tests used:
Assay in all cases: SPR; SPR imaging (SPRi, Biacore Flexchip): partners spotted in triplicate on a bare gold chip at 0.06 to 1 mg/ml; purified LOX-PP injected at 2 µM and recirculated for 20 min; PBS with 0.05% Tween 20, 25 °C; both purified
[1] = biological target: Vascular endothelial growth factor receptor-2 (VEGFR-2) (UniProt P35968)
Collagen XIII ectodomain = Collagen XIII ectodomain (UniProt Q5TAT6)
Calreticulin = Calreticulin (UniProt P27797)
Integrin α5β1 ectodomain = Integrin α5β1 ectodomain (UniProt P08648)
Perlecan = Perlecan (UniProt Q05793)
[2] = biological target: Fibroblast growth factor-2 (UniProt P09038)
[3] = biological target: Endostatin (expressed in HEK293 cells) (UniProt P39060)
[4] = biological target: Collagen VI (vWF2-3 domain) (UniProt P12109)
[5] = biological target: T1, Extracellular matrix protein 1 (ECM1) (UniProt Q16610)
T1 sequence: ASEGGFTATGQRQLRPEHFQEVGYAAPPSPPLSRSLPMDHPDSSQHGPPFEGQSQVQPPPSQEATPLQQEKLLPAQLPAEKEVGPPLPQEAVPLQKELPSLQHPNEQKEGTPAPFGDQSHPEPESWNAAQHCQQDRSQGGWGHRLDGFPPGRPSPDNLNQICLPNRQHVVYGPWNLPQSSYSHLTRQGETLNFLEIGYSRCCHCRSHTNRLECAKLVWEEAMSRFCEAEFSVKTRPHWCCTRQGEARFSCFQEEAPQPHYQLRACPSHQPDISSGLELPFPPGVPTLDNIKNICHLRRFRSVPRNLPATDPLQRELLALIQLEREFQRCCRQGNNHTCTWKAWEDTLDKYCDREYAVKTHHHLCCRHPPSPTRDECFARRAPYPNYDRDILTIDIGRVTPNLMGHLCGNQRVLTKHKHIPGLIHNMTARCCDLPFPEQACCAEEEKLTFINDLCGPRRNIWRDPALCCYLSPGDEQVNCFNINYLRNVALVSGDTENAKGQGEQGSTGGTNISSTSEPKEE

Aggrecan = Aggrecan (UniProt P13608)
Lumican = Lumican (UniProt P51884)
[6] = biological target: Collagen XVIII (NC1 domain) (UniProt P39060)
Collagen XXV ectodomain = Collagen XXV ectodomain (UniProt Q9BXS0)
[7] = biological target: Collagen XXIII ectodomain (UniProt Q86Y22)

Measured: binding

Lysyl oxidase propeptide (LOX-PP) (Pro24Leu) (from UniProt P28300 22-168) (domain or fragment)
no binding (tested: 2 µM): [1] | Collagen XIII ectodomain | Calreticulin | Integrin α5β1 ectodomain | Perlecan | [2] | [3] | [4] | [5] | Aggrecan | Lumican | [6] | Collagen XXV ectodomain | [7]
